Results published in paper PMC10726135.
This is one part of the list. At the low end of the ranking the order means little. Measured with an extract: partners may take part in the binding.

The sequences below were run against T1, HNF4alpha2 (COS-7 nuclear extract) (UniProt P41235) (assay: protein-binding microarray). Settings: COS-7 nuclear extract on double-stranded Agilent 4x180k PBM; binding buffer, salt, pH and temperature not given; high values mean tight binding; double strand, one strand shown; sequences stand for … in …GCCTAGGGAGATTAGAGTATCGGTCGA.
T1 sequence: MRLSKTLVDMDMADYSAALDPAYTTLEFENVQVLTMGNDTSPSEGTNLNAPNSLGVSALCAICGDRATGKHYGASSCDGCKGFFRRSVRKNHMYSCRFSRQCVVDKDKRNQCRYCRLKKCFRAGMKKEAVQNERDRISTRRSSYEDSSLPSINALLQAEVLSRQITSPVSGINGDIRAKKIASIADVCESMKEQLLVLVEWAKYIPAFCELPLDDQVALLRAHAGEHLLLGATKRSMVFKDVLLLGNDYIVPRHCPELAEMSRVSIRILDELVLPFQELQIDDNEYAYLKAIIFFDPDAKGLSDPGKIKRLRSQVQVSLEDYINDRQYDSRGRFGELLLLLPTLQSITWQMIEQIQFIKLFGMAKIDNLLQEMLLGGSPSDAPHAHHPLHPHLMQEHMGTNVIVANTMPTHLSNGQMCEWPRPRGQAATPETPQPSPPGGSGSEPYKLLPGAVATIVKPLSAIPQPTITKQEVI
Sequence GATAGCTCAGGGATTAACGACTCATGAAGA has a binding signal (log2 normalized intensity) of -1.1.
Sequence ATTTACATTCCAGAGTAAACGTTTCTCTCT has a binding signal (log2 normalized intensity) of -1.15.
Sequence CCAAAGGGCATTCTGGAGTTTGGAACCAAA has a binding signal (log2 normalized intensity) of 3.38.
ATTTAGCCTTTAACCTGCAGTTTCCCTATT showed a binding signal (log2 normalized intensity) of -0.0478.
Sequence ACACTCCCATCTGCCATCAGTATCCCAGTT has a binding signal (log2 normalized intensity) of 0.905.
Work on ACTTTGGACCTTTGTGTGTGTGTGTGTGTG yielded a binding signal (log2 normalized intensity) of 3.6.
Sequence CTTTATACCTGTACGTTACTCTGTACCTCG has a binding signal (log2 normalized intensity) of 1.19.
GATCATGATTATAAACCTGCCTACATCAAG was tested, and the binding signal (log2 normalized intensity) was -1.05.
TCCAAAGTCCTTCTAAAGCAAATTTATAGG gave a binding signal (log2 normalized intensity) of 0.432.
In the case of CTGTCAAGTCCAAAGTTCTTGGCCAGGCAT, the binding signal (log2 normalized intensity) is reported as 2.5.
TGGTTTAGATAAGCACTTCAAAGGTCGTGT was tested, and the binding signal (log2 normalized intensity) was 2.92.
In the case of GGGACTTCAAAGGCTCCCCTAATCCCTGTG, the binding signal (log2 normalized intensity) is reported as -0.798.
With AAATCACACGAAACAAGTAGCAGTTCAAAA the binding signal (log2 normalized intensity) was -1.08.
For ATGTTCCATGTTAGGGGTTTGTCCAAGAAA, the binding signal (log2 normalized intensity) was 1.65.
Sequence TAAGACAACTTTCTCCTCCAGGACCTTGCC has a binding signal (log2 normalized intensity) of -1.07.
Sequence ACCCCCCACTCTTCATATCTTCCCATACTG has a binding signal (log2 normalized intensity) of 1.48.
Work on TAGGTATGATAACCCCCGTCACTGCAAGGC yielded a binding signal (log2 normalized intensity) of 3.56.
In the case of ACTTGCCACGGAATCCCAGTTCTGATACAC, the binding signal (log2 normalized intensity) is reported as -1.13.
In the case of TTCAGAAGACTTCCTGGCCTCTCTGCAAAT, the binding signal (log2 normalized intensity) is reported as -0.756.
ACCTGCCTAACATTCTCTAATCAGGTCGCT showed a binding signal (log2 normalized intensity) of -1.15.
ATTAACTAACCTTTGAACCAGATGGCCCTC gave a binding signal (log2 normalized intensity) of 3.62.
Sequence GAAGCCAGGGGTAAGTTTCTAACTACCATG has a binding signal (log2 normalized intensity) of -1.19.
With CAGGGGGAGGCTCAGAGTCTGTGGAGACAC the binding signal (log2 normalized intensity) was -1.16.
For ACTTATTACCGGTGTGACTTTGGTTGGATT, the binding signal (log2 normalized intensity) was 1.93.
Sequence ATGCCTGGGGTTCCAGTTACTGGAGGCTGG has a binding signal (log2 normalized intensity) of -0.725.
For ACTGACAGAGATCAAAAACCAAAGCTGGAG, the binding signal (log2 normalized intensity) was -1.08.
In the case of CCAGGGACCAGGAAGGCAGTAAGAGAGAAA, the binding signal (log2 normalized intensity) is reported as -1.09.
GCTAATGTCTCTCTGGCCGGAGGGGAGGTT gave a binding signal (log2 normalized intensity) of 0.0972.
For CTCCGTTTGCTATGGCCTTTCTTCATTGTT, the binding signal (log2 normalized intensity) was 1.76.
In the case of TCTCCAAAATAGGGTAGTTTGGAGATGCCG, the binding signal (log2 normalized intensity) is reported as -0.244.
In the case of GGCCAAAGGTGAAGGAGAATATTAGATGAT, the binding signal (log2 normalized intensity) is reported as 0.585.
Sequence CACTTCTGAAAAAAATATTGAACAAAGATT has a binding signal (log2 normalized intensity) of -0.491.
In the case of AATTGACAAGAGTGTGGCTCAGGTTGCTGC, the binding signal (log2 normalized intensity) is reported as -1.09.
CACCCTTCATAGAATTGAAGAGAGTTAGGG showed a binding signal (log2 normalized intensity) of -0.735.
For CTGCTGTAATAAAGCCTTATCTGACCAGGG, the binding signal (log2 normalized intensity) was 0.312.
For GAAGAACTGATTCCAAAGGAAATCACATAG, the binding signal (log2 normalized intensity) was -1.05.
Work on TACACCTGGGGGCTTCCCAACTCCATTATC yielded a binding signal (log2 normalized intensity) of -0.261.
AAATGCCATAGTCCAAAGTGGCAGTCGCCT was tested, and the binding signal (log2 normalized intensity) was -0.116.
GGACACCGAGGTCCTGGGGCGATGCTTCCA was tested, and the binding signal (log2 normalized intensity) was -1.12.
With GATAGATATGTTGAAGTGACTAAATGAGAA the binding signal (log2 normalized intensity) was -0.48.
For AATGGAAGAATCACAGTGTGGGGCAAATCT, the binding signal (log2 normalized intensity) was -0.752.
AGAGCCACCCTCAAATCAGTGAAGGCCTCT showed a binding signal (log2 normalized intensity) of -1.16.
With CTAACTGTGTTGAATTAGTACCTCAATGCT the binding signal (log2 normalized intensity) was -1.21.
Work on GTGCTTGGACCTGCTCTGTTTTCTTTCGGT yielded a binding signal (log2 normalized intensity) of 1.49.
For CACAAAGAAGACCCTTTCTTATCTAAGCCA, the binding signal (log2 normalized intensity) was -1.21.
TCTTCGCCTTGCTTATCTGGGAGGGGGAGG was tested, and the binding signal (log2 normalized intensity) was -1.21.
CTCTAAGTAATCAATGGTTGCACTCTGGTG was tested, and the binding signal (log2 normalized intensity) was 1.98.
For TTGGAGACAGTGAGACGCAAGCATATCTCT, the binding signal (log2 normalized intensity) was -0.964.
For AGGAAACTTAAGTCTCAAAGGTCAGATGAC, the binding signal (log2 normalized intensity) was 4.8.
In the case of CATCTGGACTTTACACAGACCTTTACCCAC, the binding signal (log2 normalized intensity) is reported as 3.33.
For CAGAGACAATGTGAGCAGGTGTGTGGCATC, the binding signal (log2 normalized intensity) was 0.817.
GCCTCTTAACAGATGAGGACATTTCAGCAA was tested, and the binding signal (log2 normalized intensity) was -1.08.
Work on GTGAGGGGTTATGGAGAGTGGAAGACTGCA yielded a binding signal (log2 normalized intensity) of -1.17.
For AGTAGCATTATCTCCTTGCTGTGCACTTCT, the binding signal (log2 normalized intensity) was 1.62.
For TTGCCTTGTCCTTAGACAGTAACCCTTGAG, the binding signal (log2 normalized intensity) was 1.69.
TTGCCCCTTCCAAAGTCCACCTCAACCTCC was tested, and the binding signal (log2 normalized intensity) was 4.21.
CACCCGGTTGGCGCCAATACCTGCCGCGCG showed a binding signal (log2 normalized intensity) of -1.12.
TATAGACTGTGATAATGCTCTTAATACTGT showed a binding signal (log2 normalized intensity) of 0.287.
AAAAGGTATTTTTTGAATGACAGTGTCAGG was tested, and the binding signal (log2 normalized intensity) was 1.45.
Work on AGTTACAGTCACTCCCTATCAACCAAATCA yielded a binding signal (log2 normalized intensity) of -1.09.
Work on AGAAAACTCAACTTCTAACTTCCGGCTGGC yielded a binding signal (log2 normalized intensity) of -1.11.
With CGCTGGGAAGACAGTCTTGGGCACAAAGTA the binding signal (log2 normalized intensity) was -1.12.
For GACATCTGGGAACAAGTTCTGCAGACTCCC, the binding signal (log2 normalized intensity) was -1.08.
For CCCTTCTTCTCCTCCCAACAGGTATGCTCC, the binding signal (log2 normalized intensity) was 1.89.
ACTCCACAAGACCACAAGGTGGCGATAACT showed a binding signal (log2 normalized intensity) of -1.06.
CAGTTTTACAAAGTGGTTGTAGCAGTTCAC gave a binding signal (log2 normalized intensity) of 1.72.
TGTTTTGGAGTTAGCTGTCTTTCTGATAAG was tested, and the binding signal (log2 normalized intensity) was 1.51.
With CCTTGCTATGGAGTGGACTTTGGCTTATGC the binding signal (log2 normalized intensity) was 6.18.
CAACCAAGTCCATCTGTATTGCCTCCTTTG gave a binding signal (log2 normalized intensity) of 1.08.
GAGCTCAGTCACAGCAGTGGACTTTGACCT was tested, and the binding signal (log2 normalized intensity) was 11.2.
Work on GCAACAGAGGAGCATGGACTTCTGAGCTTG yielded a binding signal (log2 normalized intensity) of -0.613.
ATACAGAATCAATGCCTGATTCCAAAGTCC was tested, and the binding signal (log2 normalized intensity) was 5.95.
Work on CAGGTTCAAATCTAAACCTAGCAGCCTGCC yielded a binding signal (log2 normalized intensity) of -1.15.
For CAGCAGAGGGAGCCGCTGTGTGGGAAGAGG, the binding signal (log2 normalized intensity) was -0.914.
With TGGTAAAGTCAATAATCTAGAAACCAGTGA the binding signal (log2 normalized intensity) was 0.24.
Work on GTTTTCTGACGCAACAGAAAACTCAACTTC yielded a binding signal (log2 normalized intensity) of -1.12.
With AGAGTCCAAGATACCACTGATAAGGTTCCA the binding signal (log2 normalized intensity) was -0.744.
GTTTCCTTTGAACTCTGCATCCAGGCATCC was tested, and the binding signal (log2 normalized intensity) was 0.259.
For CAAGAAAAGGTTCCTATGTAAACACAAGAT, the binding signal (log2 normalized intensity) was -0.444.
For GCTAGACTTGGACCAGCTTTTGGAAGGACT, the binding signal (log2 normalized intensity) was -0.413.
For CTTCGCTCTCTTCTGGTGATCAAACAAAAG, the binding signal (log2 normalized intensity) was -0.414.
Work on AAACAGAGGACAGTTGTGTTTGTTGACCAC yielded a binding signal (log2 normalized intensity) of 1.99.
GGGTGAAAGGGACTCATCTCCAAACGAGAC gave a binding signal (log2 normalized intensity) of -0.986.
In the case of TTTGGTGTTACCTTTGGACTGTCCTTTGCT, the binding signal (log2 normalized intensity) is reported as 4.07.
With GCTTTGAGACACCTGGCCAAGTACAGCCTG the binding signal (log2 normalized intensity) was -1.16.
Work on GTCGGGAGGTAGGGGTGGCGGGTTGGAGGT yielded a binding signal (log2 normalized intensity) of 0.142.
GCACAGCCAGAACTGAGCCCTGGTTTATCT gave a binding signal (log2 normalized intensity) of -0.985.
Work on CTCTACCCCATGATGATAGCAAACACGATT yielded a binding signal (log2 normalized intensity) of 1.44.
ACTGTCTCGGGGATTAGCGATCATGGGTGA was tested, and the binding signal (log2 normalized intensity) was -1.18.
CTGGTTGAAGGGGAGGTTATCTTGGGGCTG was tested, and the binding signal (log2 normalized intensity) was -0.241.
CCTGAGCCTGGACCTTGGAATGTCAAGATT showed a binding signal (log2 normalized intensity) of 2.48.
GATTAGGAGAGGGAGAGTGAGTGAGTGTGT gave a binding signal (log2 normalized intensity) of 1.95.
With CCTGACCTGCCCTTTGTCCCTCCTGCTAGT the binding signal (log2 normalized intensity) was 3.3.
